Laboratory results: PubChem BioAssay AID1508623 (National Center for Advancing Translational Sciences (NCATS), 2021)
The whole screen tested about 48,000 compounds, of which about 450 (0.94%) were called active. About 19% were inconclusive and are not listed. The call rests on the fitted dose curve; in most records, active means well fitted inhibition curve with a large enough effect; inconclusive means small, poorly fitted or top-dose-only effect; inactive means no such curve, though single readings can be large or run the other way. Some of the results follow.

test: Primary qHTS for Identification of Small Molecule Inhibitors of Huntingtin Promoter Activity; details: HEK293 HTT promoter firefly luciferase reporter (activity 0% = vehicle and -100% = no light), 24 h; series mostly up to 57.5 µM; activity change, negative = inhibition: at the top concentration; further: nearly all actives have a fitted effect of over 50% in size
Procedure, shortened: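 Firefly luciferase readout (Dual-Glo, 10 min RT) after 24 h, 37 °C compound exposure (final up to 57.5 uM) of HEK293 reporter cells cultured 24 h beforehand; PTC124 at 50 uM final as control inhibitor; activity scaled vehicle 0%, zero RLU -100%.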

Activity change, negative = inhibition, inactive:
COc1ccc(-c2nc3sc(CCNC(=O)c4cc(OC)c(OC)c(OC)c4)c(C)n3n2)cc1 12.3%
CCOc1ccc(NC(=O)CSc2ncc3c(n2)-c2ccc(Cl)cc2N(Cc2ccccc2)S3(=O)=O)cc1 -11.6%
COc1ccc(C)cc1NC(=O)c1oc2ccc(S(=O)(=O)N3CCCCC3)cc2c1C -7.89%
Cc1ccc(C)c(N2CCN(S(=O)(=O)c3cc(Br)cc4c3N(C(=O)C3CC3)CC4)CC2)c1 -4.31%
CCOc1ccc(C2c3[nH]c4ccccc4c3CCN2C(=O)CCc2ccccc2)cc1 (configuration not stated) -18.5%
Clc1ccc2c(c1)Nc1ccccc1S2 0.553%
O=C(C1CCN(S(=O)(=O)c2ccc(Br)s2)CC1)N1CCN(c2cccc(Cl)c2)CC1 -24.9%
COc1cc(C(=O)NCCCc2nc3ccccc3n2CC(C)C)cc(OC)c1OC -2.3%
Cc1ccc(Sc2c(C)nn(C(=O)COc3ccccc3Br)c2C)cc1 -21.1%
CCOc1ccc(CCNC(=O)c2sc3nc4n(c(=O)c3c2C)CCCC4)cc1OCC -10.1%
CCOC(=O)c1ccc(NC(=O)CCn2c(=O)c3cccn3c3ccccc32)cc1 0.499%
Cc1ccc2[nH]c(CSc3nnc(NC(=O)COc4ccccc4)s3)cc(=O)c2c1 -11.9%
NC(=O)c1c(NC(=O)c2nc(SCc3ccccc3F)ncc2Cl)sc2c1CCCC2 -5.54%
CCOC(=O)c1sc2ncn(CC(=O)Nc3ccc(N(C)C)cc3)c(=O)c2c1C -8.81%
O=C(Nc1nc2ccc(S(=O)(=O)N3CCCC3)cc2s1)c1cccc(F)c1 -9.28%
COc1ccc(OC)c(CNC(=O)c2nn(-c3ccc(OC)c(Cl)c3)c(=O)c3c2c2ccccc2n3C)c1 0.811%
CCCCn1cc(S(=O)(=O)c2ccc(C)c(C)c2)c(=O)c2cc(F)c(N3CCCC(C)C3)cc21 (configuration not stated) 2.24%
CCOc1ccc2nc(N3CCCC(C(=O)Nc4c(C)cccc4C)C3)sc2c1 (configuration not stated) 53.9%
COc1ccc(CCNC(=O)CCCn2c(=O)c3ccccc3n(Cc3cccc(Cl)c3)c2=O)cc1OC -30.3%
Nc1nc2ccccc2n1Cc1ccc(F)cc1 -15.7%
COc1ccc(S(=O)(=O)n2nc(C)c(S(=O)(=O)N3CCC(C)CC3)c2C)cc1C 4.47%
CCC(=O)Nc1c(C(=O)N2CCN(c3ccc(F)cc3)CC2)oc2ccccc12 -33.6%
Cc1cccc(C)c1NC(=O)CSc1nc(-c2ccccc2)nc2c1Cc1c(CO)cnc(C)c1O2 -14.9%
O=C1NCCN(Cc2ccc(F)cc2)C1=O -9.56%
COc1ccc(NC(=O)Cn2nnc(C(=O)Nc3ccc(F)c(Cl)c3)c2N)cc1OC -7.14%
Cc1ccc(NC(=O)Cn2cc(C(=O)C3CC3)c3ccccc32)cc1 -4.11%
COC(=O)c1scc(-c2ccc(C)cc2)c1S(=O)(=O)Nc1cc(Cl)ccc1C -31.3%
Cn1c(=O)c(=O)n(C)c2cc(N3CCOCC3)c(NS(=O)(=O)c3ccc(Cl)cc3)cc21 -0.838%
CCc1ccc(S(=O)(=O)c2cn(CC(=O)Nc3ccc(C)cc3)c3ccccc3c2=O)cc1 -22.6%
COc1cccc(C(c2sc3nc(-c4ccco4)nn3c2O)N2CCC(O)CC2)c1 (configuration not stated) 5.2%
CCOc1ccc(CCNC(=O)c2ccc3c(Cl)c4c(nc3c2)CCCC4)cc1 -16.5%
O=S(=O)(NCCc1nnc2ccc(SCc3ccc(Cl)cc3Cl)nn12)c1ccccc1 -0.504%
CCOc1ccccc1NC(=O)c1sc2nc3n(c(=O)c2c1C)CCCCC3 2.51%
Cc1cc(C)cc(NC(=O)CSc2nc3c(oc4ccccc43)c(=O)n2-c2ccccc2F)c1 -9.21%
COc1ccc2cc3cc(C(=O)NCc4ccc(C)cc4)oc3nc2c1 -10.4%
COc1ccc(F)cc1S(=O)(=O)NCCc1c(C)[nH]c2c(Cl)cccc12 -22%
CCc1cccc(OCC(=O)Nc2ccc(S(=O)(=O)Nc3cc(C)nc(C)n3)cc2)c1 -27.3%
COc1ccc(Nc2cc(C(=O)NCCc3ccc(C)cc3)c3ccccc3n2)c(OC)c1 17.1%
CCOC(=O)N1CCC(NC(=O)c2c(C)nn(-c3ccc(C)cc3)c2-n2cccc2)CC1 -19.8%
CCOCCCNC(=O)C1CCN(c2nn3cc(-c4ccc(F)cc4)nc3s2)CC1 -9.81%
CCCCOc1ccc(C(=O)Nc2nnc3n2CCS3)cc1 -5.03%
CCC(C(=O)OCCOCCN(CC)CC)c1ccccc1 (configuration not stated) -0.602%
CCOc1ccc(-c2nn(CC(=O)NC3CCCCC3)c3c2cnc2ccc(C)cc23)cc1 13.9%
CCCn1c2ccccc2c2cnn(CC(=O)NCCc3ccc(OCC)cc3)c(=O)c21 -4.04%
COc1cc(-c2noc(-c3ccc(NCc4ccccc4)c([N+](=O)[O-])c3)n2)cc(OC)c1OC -6.19%
CCOc1ccc(NC(=O)CCNS(=O)(=O)c2ccc3c(c2)oc(=O)n3C)cc1 -9.82%
COc1ccc(NC(=O)Cn2nnc3sc4c(c3c2=O)CCC(C)C4)c(OC)c1 (configuration not stated) -4.02%
COc1ccccc1CNC(=O)c1ccc2c(c1)N(Cc1cccc(C)c1)C(=O)c1ccccc1S2(=O)=O -11.9%
COc1ccc(Cl)cc1NC(=O)c1sc(-n2nc(C)c(Cc3ccccc3)c2C)nc1C 2.59%
Cc1ccc(C)c(Cn2c3ccccc3c3cnn(CC(=O)NCCC4=CCCCC4)c(=O)c32)c1 0%
CCn1c(=O)c2cc(C(=O)N(CCN(C)C)Cc3ccccc3)sc2c2ccccc21 -6.79%
Cc1nnc(SCc2ccccc2)c2cc3sccc3n12 36.6%
CCOc1cc(C(=O)N2CC(=O)Nc3ccc(C)cc3C2c2ccccc2)cc(OCC)c1OCC (configuration not stated) -4.62%
COCCCNC(=O)CSC1=Nc2ccccc2C2=NC(CCC(=O)NCc3ccccc3OC)C(=O)N12 (configuration not stated) -24.8%
COc1ccc(N2CCN(c3oc(/C=C/c4ccc(F)cc4)nc3C#N)CC2)cc1 38.1%
CCc1ccc(CN(Cc2ccco2)C(=O)c2ccc(OC)cc2)cc1 -14.6%
CCc1ccc(CNC(=O)CCC(=O)N2Cc3cccc(OC)c3Oc3ncccc32)cc1 -5.83%
COC(=O)c1cccnc1 -5.31%
O=C(Nc1cccc(C(=O)OCc2cc(=O)n3nc(C4CC4)sc3n2)c1)c1ccccc1 -7.3%
Cc1cc(C)cc(OC(C)C(=O)Nc2nonc2-c2ccc(Br)cc2)c1 (configuration not stated) -18.2%
Cc1ccccc1NC(=O)CSc1nnc(C)c(=O)[nH]1 -14.3%
O=C(NCc1ccco1)C1CCN(C(=O)N2CCOc3ccccc32)CC1 2.04%
Nc1c(-c2nc(-c3cccs3)no2)nnn1-c1ccccc1Cl 53.7%
Cc1ccc(Cl)cc1N(C)C(=O)Cn1nc(Cc2cccnc2)c2ccccc2c1=O -22%
COCCn1c(CNC(=O)c2ccc(C)cc2)nc2cccnc21 3.96%
COc1ccccc1-c1nc2c3c(-c4ccccc4)c(-c4ccccc4)oc3ncn2n1 41.9% [at 11.5 µM]
Cc1ccccc1CS(=O)(=O)CC1Nc2ccc(C(=O)NCc3ccc(Cl)cc3)cc2NC1=O (configuration not stated) -18.8%
CCOc1ccc(-c2nonc2NC(=O)c2oc3c(C)c(C)ccc3c2C)cc1OCC -30.4%
Cc1ccc(C)c(Cn2c3ccccc3c3cnn(CC(=O)NCCCc4ccccc4)c(=O)c32)c1 10%
COc1ccccc1N1CCN(C(=O)Cn2c(=O)n3nc(-c4cccc(C)c4)nc3c3ccccc32)CC1 -16.5%
CCCSc1ncc(Cl)c(C(=O)Nc2c(C(=O)c3ccc(F)cc3)oc3ccccc23)n1 -11.3%
CCN(C(=O)Cn1nc(Cc2ccncc2)c2ccccc2c1=O)c1cccc(C(F)(F)F)c1 -0.215%
CC(C)Cn1c(=O)c2ccccc2n2c(CCC(=O)Nc3ccc(F)c(F)c3)nnc12 6.31%
O=C(NCCc1ccccc1)c1ccc2c(c1)CCN2S(=O)(=O)c1ccccc1 -20.6%
CC(C)CSc1ccccc1NC(=O)c1sc2nc(-c3ccncc3)ccc2c1N -9.84%
CCOC(=O)c1c(NC(=O)C(C)Oc2ccc(Cl)c(C)c2)sc2c1CCCC2 (configuration not stated) -12.1%
O=C(Cn1cc(S(=O)(=O)Cc2ccccc2F)c2ccccc21)NCc1ccccc1Cl -2.42%
COc1ccc(NC(=O)CCN2CCN(CCO)CC2)cc1 -22.7%
CCN(c1cc(C)cc(C)c1)S(=O)(=O)c1nnc(NC(=O)c2ccco2)s1 -17.8%
O=C(O)CCCCC(=O)O 3.6%
CCOc1ccc(C(=O)Nc2ccc(-c3nc4ccccc4s3)c(C)c2)cc1OCC 57.4%
Cc1cccc(N2CCN(C(=O)c3ccc(NC(=O)c4nsc5ccccc45)cc3)CC2)c1C -22%
Cc1ccc(NC(=O)Cn2nnc(-c3nc(-c4ccc(Cl)cc4)no3)c2N)cc1C 2.33%
CCc1nc2c(cnn2-c2ccc(Cl)cc2)c(=O)n1-c1ccc(OC)c(Cl)c1 -9.58%
Cc1ccc(OCC(=O)Nc2cc(-c3cccc(C)c3)nn2-c2ccccc2)cc1 30%
CCOc1ccccc1C(=O)Nc1cc2c(cc1N1CCOCC1)n(C)c(=O)n2C -5.36%
Cc1ccc(CCNC(=O)c2ccc3c(c2)c(C)c(C)n3Cc2ccccc2)cc1 -10.9%
NC(=S)N/N=C/c1cccnc1 9.95%
COc1ccc(-n2c(=O)c3sc4ccccc4c3n(CC(=O)NCc3ccccc3)c2=O)cc1 -6.52%
Cc1ccccc1CNC(=O)c1ccc(CS(=O)Cc2ccc(Cl)cc2)o1 (configuration not stated) -28.2%
CCOc1ccc(N2CC(c3nc4ccccc4n3Cc3cccc(C)c3)CC2=O)cc1 (configuration not stated) -27.7%
O=[N+]([O-])c1cc(-c2nc(-c3ccccc3)no2)ccc1NCCc1ccccc1 -16.3%
CCn1c(CC2C(=O)N(C)c3ccccc32)nc2ccccc2c1=O (configuration not stated) -20.1%
COc1ccc(Cl)cc1NC(=O)CSc1nc(-c2ccccc2)c2ccccc2n1 -4.6%
O=C(Nc1cccc(F)c1)[C@@H](c1ccccc1)N1Cc2ccccc2C1=O -14.4%
CC(C)CC(C(=O)NCCc1ccccc1)N1Cc2ccccc2C1=O (configuration not stated) -18.5%
CCc1ccc(NC(=O)CCCn2nc(C)c3c(C)n(-c4ccccc4)nc3c2=O)cc1 2.11%
